Laboratory results: a collection of fitness landscapes (doi:10.1126/science.1257360)
This is one part of the list.

B1: PhoQ; a variant is named by its letters at X, in order, P23837 (parent)
chain: MKKLLRLFFPLSLRVRFLLATAAVVLVLSLAYGMVALIGYSVSFDKTTFRLLRGESNLFYTLAKWENNKLHVELPENIDKQSPTMTLIYDENGQLLWAQRDVPWLMKMIQPDWLKSNGFHEIEADVNDTSLLLSGDHSIQQQLQEVREDDDDAEMTHSVAVNVYPATSRMPKLTIVVVDTIPVELKSSYMVWSWFIYVLSANLLLVIPLLWVAAWWSLRPIEALAKEVRELEEHNRELLNPATTRELTSLVRNLNRLLKSERERYDKYRTTLTDLTHSLKTPLXXLQXXLRSLRSEKMSVSDAEPVMLEQISRISQQIGYYLHRASMRGGTLLSRELHPVAPLLDNLTSALNKVYQRKGVNISLDISPEISFVGEQNDFVEVMGNVLDNACKYCLEFVEISARQTDEHLYIVVEDDGPGIPLSKREVIFDRGQRVDTLRPGQGVGLAVAREITEQYEGKIVAGESMLGGARMEVIFGRQHSAPKDE

Variants of: B1
Assay: enrichment ratio after two sorts for PhoP signalling (ratio (wild type AVST 3.29)); higher = more functional
Details: with PhoP (E. coli)

| Variant | enrichment ratio |
| --- | --- |
| LCLK | ≤ 0.25 |
| RFQV | ≤ 0.25 |
| LDYV | ≤ 0.25 |
| VGWP | ≤ 0.25 |
| ENKL | ≤ 0.25 |
| EGEE | ≤ 0.25 |
| GYYI | ≤ 0.25 |
| VDAP | ≤ 0.25 |
| MKRW | ≤ 0.25 |
| DMAI | ≤ 0.25 |
| FPFN | ≤ 0.25 |
| KKWV | ≤ 0.25 |
| KPLT | ≤ 0.25 |
| HHSR | ≤ 0.25 |
| HMRN | ≤ 0.25 |
| DVMR | ≤ 0.25 |
| MDGS | ≤ 0.25 |
| RETN | ≤ 0.25 |
| SHRS | ≤ 0.25 |
| FACN | ≤ 0.25 |
| AWYN | ≤ 0.25 |
| VVAN | ≤ 0.25 |
| DHMV | ≤ 0.25 |
| VRAA | ≤ 0.25 |
| LWLI | ≤ 0.25 |
| TNDA | ≤ 0.25 |

| Variant | enrichment ratio |
| --- | --- |
| SRSS | ≤ 0.25 |
| LGCN | ≤ 0.25 |
| GPIV | ≤ 0.25 |
| STTF | 9.59 |
| LPWL | ≤ 0.25 |
| TEYD | ≤ 0.25 |
| FMCP | ≤ 0.25 |
| HSWT | ≤ 0.25 |
| RRNM | ≤ 0.25 |
| QCTV | ≤ 0.25 |
| HREP | ≤ 0.25 |
| STVE | 3.69 |
| NYVD | ≤ 0.25 |
| AGWY | ≤ 0.25 |
| PCKE | ≤ 0.25 |
| RDIS | ≤ 0.25 |
| GWKC | ≤ 0.25 |
| YSDD | ≤ 0.25 |
| PHNG | ≤ 0.25 |
| YSIS | ≤ 0.25 |
| KVQH | ≤ 0.25 |
| VWRQ | ≤ 0.25 |
| ISHK | ≤ 0.25 |
| RVCH | ≤ 0.25 |
| FSWY | ≤ 0.25 |
| ILWC | ≤ 0.25 |

| Variant | enrichment ratio |
| --- | --- |
| ETLG | ≤ 0.25 |
| QQVW | ≤ 0.25 |
| MPRK | ≤ 0.25 |
| WYEW | ≤ 0.25 |
| IFAG | ≤ 0.25 |
| HHWQ | ≤ 0.25 |
| RTKL | ≤ 0.25 |
| LREA | ≤ 0.25 |
| AHLN | ≤ 0.25 |
| TSCW | 3.22 |
| YGVF | ≤ 0.25 |
| TENP | ≤ 0.25 |
| VDFL | ≤ 0.25 |
| WLCM | ≤ 0.25 |
| KHTH | ≤ 0.25 |
| NAHA | ≤ 0.25 |
| TWVY | ≤ 0.25 |
| RLGT | ≤ 0.25 |
| KCFP | ≤ 0.25 |
| LPYR | ≤ 0.25 |
| SVCG | 13.3 |
| VNEG | ≤ 0.25 |
| FSAG | 0.864 |
| IAPC | ≤ 0.25 |
| DITK | ≤ 0.25 |
| PGRD | ≤ 0.25 |

| Variant | enrichment ratio |
| --- | --- |
| LLTM | ≤ 0.25 |
| FPKP | ≤ 0.25 |
| MLRC | ≤ 0.25 |
| HEHQ | ≤ 0.25 |
| PDQI | ≤ 0.25 |
| SFHD | ≤ 0.25 |
| WSKC | ≤ 0.25 |
| HVGP | ≤ 0.25 |
| HMPW | ≤ 0.25 |
| SDKI | ≤ 0.25 |
| DETT | ≤ 0.25 |
| VCKE | ≤ 0.25 |
| NTKR | ≤ 0.25 |
| FNFW | ≤ 0.25 |
| YVMQ | ≤ 0.25 |
| QPHD | ≤ 0.25 |
| FHTR | ≤ 0.25 |
| PCGQ | ≤ 0.25 |
| SRDC | ≤ 0.25 |
| QCFC | ≤ 0.25 |
| WYCF | ≤ 0.25 |
| SELT | 20.5 |
| DGYG | ≤ 0.25 |
| LALN | 3.27 |
| VPQG | ≤ 0.25 |
| KPQG | ≤ 0.25 |

| Variant | enrichment ratio |
| --- | --- |
| DQQE | ≤ 0.25 |
| WNYM | ≤ 0.25 |
| MAHE | ≤ 0.25 |
| ILRF | ≤ 0.25 |
| FWFV | 0.357 |
| TARV | ≤ 0.25 |
| GFTT | ≤ 0.25 |
| YTRG | ≤ 0.25 |
| EMYL | ≤ 0.25 |
| QLRL | ≤ 0.25 |
| LTDR | ≤ 0.25 |
| WHWG | ≤ 0.25 |
| HYEY | ≤ 0.25 |
| PLEG | ≤ 0.25 |
| RQMI | ≤ 0.25 |
| DDWM | ≤ 0.25 |
| TGRH | ≤ 0.25 |
| MEFY | ≤ 0.25 |
| LVCK | ≤ 0.25 |
| MAKR | ≤ 0.25 |
| VMVY | ≤ 0.25 |
| LREN | ≤ 0.25 |
| YWYW | ≤ 0.25 |
| LSLF | ≤ 0.25 |
| AIIE | ≤ 0.25 |
| YLWH | ≤ 0.25 |

| Variant | enrichment ratio |
| --- | --- |
| QPTF | ≤ 0.25 |
| DDSK | ≤ 0.25 |
| VHES | ≤ 0.25 |
| HYHN | ≤ 0.25 |
| GCMI | ≤ 0.25 |
| HDAG | ≤ 0.25 |
| NQDE | ≤ 0.25 |
| DAWQ | ≤ 0.25 |
| CLSR | ≤ 0.25 |
| IHMW | ≤ 0.25 |
| DGRY | ≤ 0.25 |
| YVSA | 0.277 |
| SAWY | ≤ 0.25 |
| FFLA | ≤ 0.25 |
| SHAY | 2.01 |
| LFQN | ≤ 0.25 |
| QTNW | ≤ 0.25 |
| AEGH | 12.9 |
| LQND | ≤ 0.25 |
| LDYP | ≤ 0.25 |
| WPHQ | ≤ 0.25 |
| ATPM | 0.758 |
| HEVY | ≤ 0.25 |
